Test [1] concerns the target T1, Vps8ΔN-TAP (C-terminal domain of Vps8, from residue 451, C-terminal TAP tag) (yeast (genomic locus of BY4741/BY4733 strains)) (UniProt P39702).
T1 sequence: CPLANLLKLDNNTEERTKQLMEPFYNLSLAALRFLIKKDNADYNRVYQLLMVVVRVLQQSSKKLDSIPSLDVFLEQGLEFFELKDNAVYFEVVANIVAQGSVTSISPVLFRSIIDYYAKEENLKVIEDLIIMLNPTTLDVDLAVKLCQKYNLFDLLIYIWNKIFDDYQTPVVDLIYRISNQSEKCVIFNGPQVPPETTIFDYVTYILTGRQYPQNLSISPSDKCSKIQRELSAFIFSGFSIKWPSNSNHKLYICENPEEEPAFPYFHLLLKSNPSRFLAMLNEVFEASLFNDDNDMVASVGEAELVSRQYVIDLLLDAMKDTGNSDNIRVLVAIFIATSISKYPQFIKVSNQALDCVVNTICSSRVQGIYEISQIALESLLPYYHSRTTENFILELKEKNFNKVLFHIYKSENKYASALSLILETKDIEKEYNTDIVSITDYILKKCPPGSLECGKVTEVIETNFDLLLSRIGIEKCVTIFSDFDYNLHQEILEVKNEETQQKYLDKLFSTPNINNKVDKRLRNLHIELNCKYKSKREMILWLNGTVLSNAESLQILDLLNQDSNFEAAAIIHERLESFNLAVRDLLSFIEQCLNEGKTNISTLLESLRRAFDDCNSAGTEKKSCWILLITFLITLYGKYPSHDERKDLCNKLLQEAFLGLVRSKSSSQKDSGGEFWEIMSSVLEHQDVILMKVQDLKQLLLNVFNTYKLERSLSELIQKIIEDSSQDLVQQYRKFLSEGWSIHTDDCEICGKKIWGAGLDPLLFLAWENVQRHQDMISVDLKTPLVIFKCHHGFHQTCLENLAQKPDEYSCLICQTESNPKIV
Nature of the test: co-IP; small-scale TAP purification: C-terminally TAP-tagged Vps8 or Vps3 (full-length or truncated) captured from yeast lysate (50 mM HEPES/KOH pH 7.4, 300 mM NaCl, 0.15% NP-40, 2 mM MgCl2, 1 mM DTT) on IgG beads, 1.5 h at 4°C; eluted with glycine pH 2.5 or TEV protease; Western blot with anti-Cbp, anti-HA, anti-Vps11; also with overproduced Vps8ΔN and from vps21Δ and vps21Δ ypt52Δ ypt53Δ ypt7Δ strains.

For test [2], the target named is T2, Vps8-TAP (full-length Vps8, C-terminal TAP tag) (yeast (genomic locus of BY4741/BY4733 strains)) (UniProt P39702).
T2 sequence: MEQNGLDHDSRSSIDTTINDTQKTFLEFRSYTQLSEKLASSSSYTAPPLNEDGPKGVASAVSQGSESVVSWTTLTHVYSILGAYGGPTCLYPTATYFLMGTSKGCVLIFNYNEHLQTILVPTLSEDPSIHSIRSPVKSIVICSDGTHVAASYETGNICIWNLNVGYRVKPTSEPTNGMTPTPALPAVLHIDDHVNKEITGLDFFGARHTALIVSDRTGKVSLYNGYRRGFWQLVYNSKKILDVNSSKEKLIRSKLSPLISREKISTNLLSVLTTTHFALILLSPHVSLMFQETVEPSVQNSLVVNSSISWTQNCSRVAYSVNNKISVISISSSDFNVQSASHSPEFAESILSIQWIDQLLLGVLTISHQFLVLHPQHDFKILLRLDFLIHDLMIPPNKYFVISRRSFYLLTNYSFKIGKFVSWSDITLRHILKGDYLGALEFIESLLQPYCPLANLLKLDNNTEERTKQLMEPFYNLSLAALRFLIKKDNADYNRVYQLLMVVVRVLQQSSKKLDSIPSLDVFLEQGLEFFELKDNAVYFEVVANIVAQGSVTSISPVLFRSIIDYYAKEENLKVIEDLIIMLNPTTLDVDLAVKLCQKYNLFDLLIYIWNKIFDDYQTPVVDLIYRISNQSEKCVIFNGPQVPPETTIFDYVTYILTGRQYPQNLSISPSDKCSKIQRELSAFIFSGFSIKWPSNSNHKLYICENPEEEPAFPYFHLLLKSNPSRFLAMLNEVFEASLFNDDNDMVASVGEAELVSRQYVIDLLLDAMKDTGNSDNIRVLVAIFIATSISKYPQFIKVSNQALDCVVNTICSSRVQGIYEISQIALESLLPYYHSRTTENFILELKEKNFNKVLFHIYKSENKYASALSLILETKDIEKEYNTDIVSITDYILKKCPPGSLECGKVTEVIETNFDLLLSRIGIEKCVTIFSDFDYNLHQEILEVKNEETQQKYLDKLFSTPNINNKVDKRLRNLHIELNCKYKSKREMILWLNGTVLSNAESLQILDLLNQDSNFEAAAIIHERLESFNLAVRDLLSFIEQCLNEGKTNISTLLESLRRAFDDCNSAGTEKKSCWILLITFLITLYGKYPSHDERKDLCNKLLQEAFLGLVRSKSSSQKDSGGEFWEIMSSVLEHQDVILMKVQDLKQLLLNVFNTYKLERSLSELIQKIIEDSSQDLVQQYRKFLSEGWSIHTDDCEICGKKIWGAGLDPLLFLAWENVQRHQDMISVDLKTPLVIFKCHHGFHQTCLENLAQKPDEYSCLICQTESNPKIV
The description is as above.

The next test deals with T3, GST-Vps21 (yeast) (UniProt P36017).
T3 sequence: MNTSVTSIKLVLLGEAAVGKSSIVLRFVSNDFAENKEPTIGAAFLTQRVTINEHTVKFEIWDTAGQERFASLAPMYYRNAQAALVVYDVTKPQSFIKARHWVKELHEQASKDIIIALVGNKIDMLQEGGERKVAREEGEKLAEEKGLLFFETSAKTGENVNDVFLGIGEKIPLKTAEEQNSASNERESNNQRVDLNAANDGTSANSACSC
Nature of the test: pull-down; 150 µg GST-Vps21 loaded with GTPγS (or GDP) on GSH-Sepharose; 35 µg yeast-purified Vps3-Cbp construct, 1 h at 4°C; 20 mM HEPES/NaOH pH 7.4, 150 mM NaCl, 2 mM MgCl2, 0.1% NP-40, 7 mg/ml BSA; eluted with 20 mM EDTA; blot against Cbp; both purified.

Test [3] has as its target T4, Vps21 (yeast two-hybrid bait) (yeast) (UniProt P36017).
T4 sequence: T3 sequence
Nature of the test: two-hybrid; Vps21 as bait, Vps8 constructs as preys (vectors pACT2 and pFBT9) in strain PJ69-4A; growth on TDO (-Leu -Trp -His) and QDO (also -Ade) plates; QDO strong, TDO only weak interaction.

In test [4] the target is T2, Vps8-TAP (full-length Vps8, C-terminal TAP tag) (yeast (genomic locus of BY4741/BY4733 strains)). The test can be described thus: tandem affinity purification + glycerol gradient centrifugation; large-scale purification of overexpressed CORVET or ΔNTD-CORVET via Vps8-TAP on IgG beads (buffer with 0.15% NP-40), TEV eluate on a linear 10%-40% glycerol gradient, 18 h, 4°C; fractions on SDS-PAGE, Coomassie.

No constants are given. Whether binding was seen depends on the method and setting. For part of these data: Binding seen in cells or lysates may run through a third protein. Some results given as binding are weak or reduced against the parent protein; the word gives no strength. For part of these data: Sequences can lack the tags named with a protein.

B1: Vps3ΔN-3HA (Vps3 from residue 427, C-terminal 3xHA tag) (domain or fragment, UniProt P23643 427-1011)
chain: EFKEKIFNKLRLEPLTHSDNKFRIERERAFVEESYEEKTSLIVYNNLGIHLLVPTPMVLRFTSCEESEIDNIEDQLKKLAKKDLTKFEHIEAKYLMSLLLFLMTLHYDHIEDEVMKKWCDFSDKVDIRILFYMFGWKVYSEIWCFHGLINIVERLKSLKLTNKCENILKMLLMMKNELKKKNKTGLLTNDFDDIMKTIDITLFKLRLEKKETITVDMFERESYDEIIREINLHDDKLPRIELLIEIYKEKGEYLKALNLLREAGDYISLVSFIEENLKKLPEDYIKERIADDLLLTLKQGDENTEECAIKKVLKILDMACINKNDFLNKIPAEETSLKVSFIEQLGVQNSNDSKFLFNYYLAKLREIINQSNIWSILGDFIKEYKDDFAYDKTDITNFIHIKLKHSLQCENFSKYYEKCENLKSENEKDDEFINFTFDEISKIDKEHILTLLFFPNELTNWVSSEELLKIYLSFNDFRSVEKYIGKQNLVAVMKQYLDISSLNYSVELVTNLLQRNFELLDDTDIQLKILETIPSVFPVQTISELLLKVLIKYQEKKEESNLRKCLLKNQISISDELSRNFDSQG
With B1, the binding entry in test [1] and in test [2] was “binds” throughout.

B2: Vps3ΔN-TAP (C-terminal domain of Vps3, from residue 427, C-terminal TAP tag) (domain or fragment, UniProt P23643 427-1011)
chain: B1 chain
As for B2, the binding entry with GST-Vps21 (yeast) is given as “no binding (tested: 35 µg of Vps3 construct)”.

B3: Vps8ΔC (yeast two-hybrid prey) (domain or fragment, UniProt P39702 1-450)
chain: MEQNGLDHDSRSSIDTTINDTQKTFLEFRSYTQLSEKLASSSSYTAPPLNEDGPKGVASAVSQGSESVVSWTTLTHVYSILGAYGGPTCLYPTATYFLMGTSKGCVLIFNYNEHLQTILVPTLSEDPSIHSIRSPVKSIVICSDGTHVAASYETGNICIWNLNVGYRVKPTSEPTNGMTPTPALPAVLHIDDHVNKEITGLDFFGARHTALIVSDRTGKVSLYNGYRRGFWQLVYNSKKILDVNSSKEKLIRSKLSPLISREKISTNLLSVLTTTHFALILLSPHVSLMFQETVEPSVQNSLVVNSSISWTQNCSRVAYSVNNKISVISISSSDFNVQSASHSPEFAESILSIQWIDQLLLGVLTISHQFLVLHPQHDFKILLRLDFLIHDLMIPPNKYFVISRRSFYLLTNYSFKIGKFVSWSDITLRHILKGDYLGALEFIESLLQPY
For the molecule B3, the binding result in test [3] was “no binding”.

B4: Vps3ΔC-TAP (N-terminal domain of Vps3, up to residue 426, C-terminal TAP tag) (domain or fragment, UniProt P23643 1-426)
chain: MVKKKTNNDKGKEVKENEGKLDIDSESSPHERENDKKKTEDDSLRATESEETNTHNANPNETVRADKFSQEESRPIEDSPHTDKNTAQESCQPSSAEDNVINTDITSLNEKTSTNDEQEKGLPLKISEGPFTISTLLDNVPSDLIYTCCEAYENHIFLGTTTGDLLHYFELERGNYMLVSQTKFDAESNSKIDKILLLPKVEGALILCDNELVLFILPEFAPRPNTTRLKGISDVVICNFSRSSKAYRIYAFHAEGVRLLKISADSLVLTKAFNFKLIDKACAHEETLMVSKLNSYELINLKSSQVIPLFRISETDEDLEPIITSFNEQSEFLVCSGGGSYDSGAMALVVNHHGDIIKGTIVLKNYPRNVIVEFPYIIAESAFQSVDIYSALPSEKSQLLQSITTSGSDLKISKSDNVFTNTNNSE
As to B4, in the test with GST-Vps21 (yeast), the binding entry is “no binding (tested: 35 µg of Vps3 construct)”.

B5: Vps3-GFP (full-length Vps3, GFP tag) (protein, UniProt P23643 1-1011)
chain: MVKKKTNNDKGKEVKENEGKLDIDSESSPHERENDKKKTEDDSLRATESEETNTHNANPNETVRADKFSQEESRPIEDSPHTDKNTAQESCQPSSAEDNVINTDITSLNEKTSTNDEQEKGLPLKISEGPFTISTLLDNVPSDLIYTCCEAYENHIFLGTTTGDLLHYFELERGNYMLVSQTKFDAESNSKIDKILLLPKVEGALILCDNELVLFILPEFAPRPNTTRLKGISDVVICNFSRSSKAYRIYAFHAEGVRLLKISADSLVLTKAFNFKLIDKACAHEETLMVSKLNSYELINLKSSQVIPLFRISETDEDLEPIITSFNEQSEFLVCSGGGSYDSGAMALVVNHHGDIIKGTIVLKNYPRNVIVEFPYIIAESAFQSVDIYSALPSEKSQLLQSITTSGSDLKISKSDNVFTNTNNSEEFKEKIFNKLRLEPLTHSDNKFRIERERAFVEESYEEKTSLIVYNNLGIHLLVPTPMVLRFTSCEESEIDNIEDQLKKLAKKDLTKFEHIEAKYLMSLLLFLMTLHYDHIEDEVMKKWCDFSDKVDIRILFYMFGWKVYSEIWCFHGLINIVERLKSLKLTNKCENILKMLLMMKNELKKKNKTGLLTNDFDDIMKTIDITLFKLRLEKKETITVDMFERESYDEIIREINLHDDKLPRIELLIEIYKEKGEYLKALNLLREAGDYISLVSFIEENLKKLPEDYIKERIADDLLLTLKQGDENTEECAIKKVLKILDMACINKNDFLNKIPAEETSLKVSFIEQLGVQNSNDSKFLFNYYLAKLREIINQSNIWSILGDFIKEYKDDFAYDKTDITNFIHIKLKHSLQCENFSKYYEKCENLKSENEKDDEFINFTFDEISKIDKEHILTLLFFPNELTNWVSSEELLKIYLSFNDFRSVEKYIGKQNLVAVMKQYLDISSLNYSVELVTNLLQRNFELLDDTDIQLKILETIPSVFPVQTISELLLKVLIKYQEKKEESNLRKCLLKNQISISDELSRNFDSQG
With B5, the binding result in test [4] is on record as “binds”.
